The target in test [1] is T1, PLDγ3-YFP-HA (Arabidopsis thaliana) (UniProt Q9T052).
T1 sequence: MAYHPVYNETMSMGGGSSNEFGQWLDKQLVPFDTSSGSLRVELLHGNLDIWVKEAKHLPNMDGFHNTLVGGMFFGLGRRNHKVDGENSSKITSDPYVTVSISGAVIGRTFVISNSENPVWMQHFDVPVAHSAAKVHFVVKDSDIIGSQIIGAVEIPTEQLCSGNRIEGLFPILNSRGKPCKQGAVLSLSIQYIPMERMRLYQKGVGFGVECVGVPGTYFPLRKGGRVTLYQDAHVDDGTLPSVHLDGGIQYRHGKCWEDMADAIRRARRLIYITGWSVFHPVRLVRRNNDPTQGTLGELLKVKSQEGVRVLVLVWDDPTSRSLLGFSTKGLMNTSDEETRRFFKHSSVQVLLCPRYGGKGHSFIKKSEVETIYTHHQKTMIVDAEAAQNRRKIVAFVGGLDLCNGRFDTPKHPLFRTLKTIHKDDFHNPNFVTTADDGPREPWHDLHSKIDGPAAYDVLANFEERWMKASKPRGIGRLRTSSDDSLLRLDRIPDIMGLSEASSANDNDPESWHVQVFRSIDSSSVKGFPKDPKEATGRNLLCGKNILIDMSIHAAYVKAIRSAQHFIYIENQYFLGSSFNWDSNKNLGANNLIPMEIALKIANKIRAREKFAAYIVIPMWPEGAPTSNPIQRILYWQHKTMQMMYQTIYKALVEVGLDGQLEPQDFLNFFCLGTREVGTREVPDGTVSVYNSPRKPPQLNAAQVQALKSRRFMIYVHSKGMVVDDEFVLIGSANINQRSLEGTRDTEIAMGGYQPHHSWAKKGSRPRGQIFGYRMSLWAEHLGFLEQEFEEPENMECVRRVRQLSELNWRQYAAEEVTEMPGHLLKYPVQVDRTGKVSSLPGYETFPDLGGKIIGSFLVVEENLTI
As to the kind of experiment: co-IP; PLD-YFP-HA and RPM1-Myc co-expressed in N. benthamiana leaves; microsomal fractions solubilised in 40 mM Tris-HCl pH 7.5, 150 mM NaCl, 1 mM DTT, 5 mM EDTA, 1% Triton X-100; PLD-YFP-HA precipitated with anti-GFP agarose beads at 4°C for 3 h; RPM1-Myc detected by blot.

In test [2] the target is T2, PLDδ-YFP-HA (35S::PLDδ-YFP-HA) (Arabidopsis thaliana) (UniProt Q9C5Y0).
T2 sequence: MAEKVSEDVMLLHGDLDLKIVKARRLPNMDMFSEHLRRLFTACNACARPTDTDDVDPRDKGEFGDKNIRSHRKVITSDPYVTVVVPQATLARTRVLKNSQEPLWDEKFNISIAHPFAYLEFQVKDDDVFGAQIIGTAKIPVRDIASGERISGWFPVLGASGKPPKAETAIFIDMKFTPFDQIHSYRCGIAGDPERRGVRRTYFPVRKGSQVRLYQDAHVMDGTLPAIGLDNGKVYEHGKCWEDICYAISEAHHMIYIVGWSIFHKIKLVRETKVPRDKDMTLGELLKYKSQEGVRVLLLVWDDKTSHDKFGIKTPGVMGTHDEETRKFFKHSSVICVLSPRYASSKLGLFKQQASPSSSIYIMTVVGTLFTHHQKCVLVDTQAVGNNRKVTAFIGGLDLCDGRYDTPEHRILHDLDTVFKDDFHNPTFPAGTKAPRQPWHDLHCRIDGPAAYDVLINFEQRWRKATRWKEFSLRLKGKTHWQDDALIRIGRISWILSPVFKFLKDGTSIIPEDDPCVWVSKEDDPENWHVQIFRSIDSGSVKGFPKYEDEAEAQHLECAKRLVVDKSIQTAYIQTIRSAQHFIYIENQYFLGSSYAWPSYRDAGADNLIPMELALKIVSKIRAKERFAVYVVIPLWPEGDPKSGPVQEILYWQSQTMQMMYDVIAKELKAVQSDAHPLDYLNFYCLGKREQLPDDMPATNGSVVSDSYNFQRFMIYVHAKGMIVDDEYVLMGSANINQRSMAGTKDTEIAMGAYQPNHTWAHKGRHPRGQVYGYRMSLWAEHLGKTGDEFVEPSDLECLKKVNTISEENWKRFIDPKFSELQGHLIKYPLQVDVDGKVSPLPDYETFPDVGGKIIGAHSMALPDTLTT
The test is described as above.

No constants are given. Whether binding was seen depends on the method and setting. Binding seen in cells or lysates may run through a third protein. Some entries that bind do so weakly or less than the wild type. Tags and fused reporters may be left off the sequences shown.

B1: RPM1-Myc (35S::RPM1-Myc) (receptor, UniProt Q39214 1-926)
chain: MASATVDFGIGRILSVLENETLLLSGVHGEIDKMKKELLIMKSFLEDTHKHGGNGSTTTTTQLFQTFVANTRDLAYQIEDILDEFGYHIHGYRSCAKIWRAFHFPRYMWARHSIAQKLGMVNVMIQSISDSMKRYYHSENYQAALLPPIDDGDAKWVNNISESSLFFSENSLVGIDAPKGKLIGRLLSPEPQRIVVAVVGMGGSGKTTLSANIFKSQSVRRHFESYAWVTISKSYVIEDVFRTMIKEFYKEADTQIPAELYSLGYRELVEKLVEYLQSKRYIVVLDDVWTTGLWREISIALPDGIYGSRVMMTTRDMNVASFPYGIGSTKHEIELLKEDEAWVLFSNKAFPASLEQCRTQNLEPIARKLVERCQGLPLAIASLGSMMSTKKFESEWKKVYSTLNWELNNNHELKIVRSIMFLSFNDLPYPLKRCFLYCSLFPVNYRMKRKRLIRMWMAQRFVEPIRGVKAEEVADSYLNELVYRNMLQVILWNPFGRPKAFKMHDVIWEIALSVSKLERFCDVYNDDSDGDDAAETMENYGSRHLCIQKEMTPDSIRATNLHSLLVCSSAKHKMELLPSLNLLRALDLEDSSISKLPDCLVTMFNLKYLNLSKTQVKELPKNFHKLVNLETLNTKHSKIEELPLGMWKLKKLRYLITFRRNEGHDSNWNYVLGTRVVPKIWQLKDLQVMDCFNAEDELIKNLGCMTQLTRISLVMVRREHGRDLCDSLNKIKRIRFLSLTSIDEEEPLEIDDLIATASIEKLFLAGKLERVPSWFNTLQNLTYLGLRGSQLQENAILSIQTLPRLVWLSFYNAYMGPRLRFAQGFQNLKILEIVQMKHLTEVVIEDGAMFELQKLYVRACRGLEYVPRGIENLINLQELHLIHVSNQLVERIRGEGSVDRSRVKHIPAIKHYFRTDNGSFYVSLSS
For the molecule B1, the binding entry was “no binding” in test [1] and “binds” in test [2].

The values are drawn from article PMC6345720.
